Laboratory results as given in the supplement of paper PMC3334620.
Over roughly 33,000 sequences, “E-score (-0.5 to 0.5)” has its median near -0.054; the highest 2% begin near 0.39. The list shows a part of the results.

These sequences were tested against Ylr278c (UniProt Q05854) (assay: PBM E-score (8-mer binding enrichment) (E-score (-0.5 to 0.5)); higher = stronger / more preferred TF binding; most listed sequences are background and not binding sites). Conditions: protein concentration: 200 nM; construct: GST-DNA-binding domain.
Summary of the method: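 GST-tagged yeast TFs (full-length or DNA-binding domain) were made by PURExpress in vitro transcription/translation and applied at about 100-200 nM to universal all-10-mer Agilent arrays. The arrays were made double-stranded by primer extension, on fresh or once-stripped slides. Bound protein was detected with fluorescent anti-GST, and scans were normalised with masliner. Each ungapped eight-base word, pooled with its reverse complement, received an E-score (modified Wilcoxon-Mann-Whitney statistic) from the Universal PBM Analysis Suite.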

In order of falling “PBM E-score” value:
1. CTCCGAGA  0.452
2. ACTTCCGG  0.435
3. ACGGAGAA  0.434
4. CCGGATCC  0.42
5. CGGACTAC  0.386
6. CAGTTCCG  0.348
7. GGAGTTCA  0.341
8. CAATTTCC  0.338
9. CGATGTCC  0.321
10. GGAGTTAA  0.312
11. CCGGATGA  0.303
12. ACGACGGA  0.301
13. GGAATTGA  0.298
14. CGGCAATA  0.294
15. AGGCCGAT  0.284
16. AGACCCCG  0.273
17. CACTCCCC  0.268
18. TCCGCTCA  0.263
19. AGCCGGTG  0.246
20. CCGCGCAA  0.231
21. ATCACTCC  0.23
22. CGAATTCA  0.219
23. ATTTCGCG  0.214
24. CCGTCTTC  0.212
25. CGCGGCAG  0.203
26. CCACCCGG  0.202
27. AGCAACGG  0.191
28. GGAGTAGA  0.185
29. GAAAACTC  0.182
30. AGCGCAGG  0.169
31. ATTCCCCC  0.162
32. GGCCCGCC  0.159
33. CGATCACG  0.154
34. GCCAGTCC  0.154
35. AGCCCGAC  0.152
36. CATTGCTC  0.152
37. CGACGCTC  0.149
38. CGCGAAGC  0.124
39. GACAAAGC  0.118
40. ACGTATTA  0.114
41. GATCGAGC  0.112
42. ATACATCC  0.109
43. CGGGAGCA  0.108
44. GGAATCTA  0.105
45. ATTCGTTC  0.102
46. AAATGGCG  0.101
47. GACCGCCA  0.0962
48. AACTTGGG  0.084
49. CAAATATC  0.079
50. ATGAGTCC  0.077
51. ATATTTTC  0.0689
52. GTGCAGTA  0.0688
53. AATGCCCC  0.0688
54. AACTTCCA  0.0686
55. CAGCAGGC  0.0553
56. GGGTGTAC  0.0459
57. ATTTCAAC  0.0433
58. GAGCTGGA  0.0426
59. GGGTTACA  0.0391
60. AAATAGTC  0.0388
61. AATTGGGA  0.037
62. CACCACCC  0.0293
63. GGAAACTA  0.0278
64. GCCAACAC  0.0249
65. GATAAAGC  0.0237
66. CAACCGCA  0.0229
67. CTGCACTC  0.0214
68. ATTTACTG  0.0212
69. CGTGGTCC  0.021
70. CAATCTTC  0.0146
71. CTTTAATA  0.0142
72. AAAATGCT  0.0133
73. CACGCCCC  0.0123
74. ATATTGAG  0.0101
75. ACGCGTAT  0.00763
76. ATGAGGCG  0.00606
77. CGATTCGA  0.00583
78. CACCAAAG  0.00548
79. AGTAAATA  0.00217
80. GTTTAGAA  0.00196
81. ATGAACCC  0.00089
82. ATCTGAGC  0.00063
83. AATAGGCC  -0.00231
84. AGAAGGTA  -0.00249
85. GTTGTCTA  -0.00467
86. AGTACATG  -0.00745
87. ATCGACAG  -0.00817
88. GTTTGCAA  -0.0089
89. CAGCGGTC  -0.0145
90. AATCCATT  -0.0189
91. GTAGTCGA  -0.0238
92. GATGCAGC  -0.0252
93. CGGCCACG  -0.0321
94. ACTGTTTC  -0.0349
95. ATTGAAAC  -0.0378
96. ACGCTGTC  -0.0394
97. AGACAAAC  -0.0425
98. ATCGGTTG  -0.0479
99. AGGTGATC  -0.0481
100. AATTGCCT  -0.0482
101. GTTCATTA  -0.0496
102. ATCCTACC  -0.0503
103. CGAGGCAG  -0.0505
104. TAACGCTA  -0.054
105. TAGAACTA  -0.0561
106. CTCAGCGA  -0.0593
107. GCAGCAAC  -0.0598
108. CGAGGTGA  -0.0625
109. AGCAATGA  -0.0636
110. ACTAATGA  -0.0645
111. AACCTATA  -0.065
112. ATCAGTGA  -0.0659
113. TCATGCGA  -0.0723
114. CGTACTTA  -0.0725
115. GAGAAGGC  -0.073
116. AAGCATGT  -0.0735
117. AAGCTCGC  -0.0769
118. CGTGAGTA  -0.0804
119. CTACCGAG  -0.0823
120. AACTAAGC  -0.0826
121. CCCACGTC  -0.086
122. GAAAATAA  -0.0861
123. ACGCTTCT  -0.0866
124. GAGACCCA  -0.091
125. AACAAACT  -0.0952
126. CCAAGACG  -0.096
127. CTGGGCCC  -0.096
128. AGCGCTGG  -0.0997
129. ATGAGGTC  -0.106
130. CTTGCACA  -0.107
131. AACGACCG  -0.109
132. CAGGATTC  -0.11
133. CGTCTAAG  -0.11
134. CACTTTGC  -0.11
135. AACAATGT  -0.11
136. AGCAAGCC  -0.111
137. GGTGCAGA  -0.112
138. ACCTGGAT  -0.113
139. ATGATCTC  -0.114
140. AGTGGTCA  -0.116
141. AACAGGTA  -0.116
142. AGTTGAGC  -0.117
143. CCATGGGG  -0.118
144. CTCCCTGA  -0.119
145. ACCTGAAA  -0.126
146. TATGTCCA  -0.128
147. ACTCAAAG  -0.129
148. AATGAGGG  -0.129
149. ATCTCGTG  -0.129
150. ACCTGACA  -0.13
151. AAGCGTGA  -0.13
152. CTACGAGC  -0.132
153. ACATGCAG  -0.134
154. ATCTCTGC  -0.138
155. TGATCACA  -0.139
156. GCACCTTA  -0.143
157. CCCGTACA  -0.145
158. CACTCTGG  -0.148
159. GATAGCTA  -0.149
160. CCACAGGG  -0.153
161. AAGGCCTC  -0.154
162. CAACTAGG  -0.156
163. ACCTATCT  -0.157
164. ATTACTGG  -0.158
165. AAGTTGGG  -0.16
166. AAATTTGG  -0.163
167. AACTCTGC  -0.163
168. ACTATGTG  -0.164
169. ATGGCTTG  -0.164
170. CAAACGAA  -0.169
171. CGACTGAC  -0.171
172. CTGCACAC  -0.171
173. ATAAGCGC  -0.172
174. AGATAGCG  -0.176
175. TGGTTTAA  -0.178
176. ACTCAAGA  -0.178
177. AGCCAGGC  -0.181
178. CACACAGA  -0.181
179. AAGCTAAC  -0.181
180. CACTCGTA  -0.184
181. ACAGTCTC  -0.185
182. CTCGCAGA  -0.186
183. CTACCTGA  -0.186
184. AAGGGAGC  -0.188
185. TATCGATA  -0.194
186. CTGAGATC  -0.196
187. CCTACGTA  -0.204
188. ACACTAGT  -0.206
189. AGAGCCAT  -0.21
190. CTAGTGGC  -0.215
191. AGCCAATA  -0.216
192. ATACGCAG  -0.217
193. TACCTCTA  -0.217
194. CTGGATCA  -0.223
195. CCTCGACC  -0.223
196. AGCCTAAG  -0.224
197. CAGGGAGA  -0.224
198. AGAAGGAC  -0.224
199. AGACCCAT  -0.229
200. ACTGTCCA  -0.23
201. ACGATAGT  -0.235
202. ACGTCCAT  -0.237
203. GAGGGTAC  -0.241
204. CCCAGTCA  -0.242
205. CTGGCGAA  -0.242
206. CCTATGAC  -0.246
207. AGGTTGTC  -0.247
208. CTGGGGGC  -0.256
209. CAGTCTTA  -0.268
210. AACCTGTG  -0.269
211. ACTTAGAG  -0.275
212. ACCAGGTG  -0.276
213. GTACCAGA  -0.28
214. CCTAGTCG  -0.282
215. AGCTGGTC  -0.294
216. CGTCGAAC  -0.298
217. GACCCCTA  -0.298
218. AAGTCGAG  -0.374
219. CTTGTCGA  -0.383
